According to patent US20140348747A1:
Where “and” joins values, the source holds several entries; their conditions need not be identical. Equal entries are not always repeated. Where two headings read alike, the source gives them in different places.

Tests used:
Conditions in all cases: modification not given
[1] = target: T1, NLpoly 5P (3P + D108N + N144T)
T1 chain: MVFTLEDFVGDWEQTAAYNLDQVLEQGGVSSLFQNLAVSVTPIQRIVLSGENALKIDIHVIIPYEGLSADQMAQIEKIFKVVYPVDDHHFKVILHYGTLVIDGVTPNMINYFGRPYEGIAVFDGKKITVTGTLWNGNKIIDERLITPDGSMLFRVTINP

[2] = target: T1, NLpoly 5P (3P + D108N + N144T)
[3] = target: T1, NLpoly 5P (3P + D108N + N144T)
[4] = target: T1, NLpoly 5P (3P + D108N + N144T)
[5] = target: T1, NLpoly 5P (3P + D108N + N144T)

Kd [1]: 8.4 nM and 9.6 nM | Kd [2]: 9 nM | Kd [3]: 17.8 nM | Kd [4]: 18 nM | Kd [5]: 15 nM
Binder: NVSGWRLFKKISN [NLpep78]
